Results as given in article PMC4336329 (PLoS ONE, 2015).
Among all 310,000 compounds or so, about 2,200 (0.71%) showed an effect of 50% or more. Effects have a minus sign here. This is one part of the list.

These molecules were tested against human ether-à-go-go-related gene (hERG) potassium channel (human, UniProt Q12809) (assay: primary screen, population patch clamp on CHO cells stably expressing hERG).
Sequence of human ether-à-go-go-related gene (hERG) potassium channel (Q12809 whole entry, looked up): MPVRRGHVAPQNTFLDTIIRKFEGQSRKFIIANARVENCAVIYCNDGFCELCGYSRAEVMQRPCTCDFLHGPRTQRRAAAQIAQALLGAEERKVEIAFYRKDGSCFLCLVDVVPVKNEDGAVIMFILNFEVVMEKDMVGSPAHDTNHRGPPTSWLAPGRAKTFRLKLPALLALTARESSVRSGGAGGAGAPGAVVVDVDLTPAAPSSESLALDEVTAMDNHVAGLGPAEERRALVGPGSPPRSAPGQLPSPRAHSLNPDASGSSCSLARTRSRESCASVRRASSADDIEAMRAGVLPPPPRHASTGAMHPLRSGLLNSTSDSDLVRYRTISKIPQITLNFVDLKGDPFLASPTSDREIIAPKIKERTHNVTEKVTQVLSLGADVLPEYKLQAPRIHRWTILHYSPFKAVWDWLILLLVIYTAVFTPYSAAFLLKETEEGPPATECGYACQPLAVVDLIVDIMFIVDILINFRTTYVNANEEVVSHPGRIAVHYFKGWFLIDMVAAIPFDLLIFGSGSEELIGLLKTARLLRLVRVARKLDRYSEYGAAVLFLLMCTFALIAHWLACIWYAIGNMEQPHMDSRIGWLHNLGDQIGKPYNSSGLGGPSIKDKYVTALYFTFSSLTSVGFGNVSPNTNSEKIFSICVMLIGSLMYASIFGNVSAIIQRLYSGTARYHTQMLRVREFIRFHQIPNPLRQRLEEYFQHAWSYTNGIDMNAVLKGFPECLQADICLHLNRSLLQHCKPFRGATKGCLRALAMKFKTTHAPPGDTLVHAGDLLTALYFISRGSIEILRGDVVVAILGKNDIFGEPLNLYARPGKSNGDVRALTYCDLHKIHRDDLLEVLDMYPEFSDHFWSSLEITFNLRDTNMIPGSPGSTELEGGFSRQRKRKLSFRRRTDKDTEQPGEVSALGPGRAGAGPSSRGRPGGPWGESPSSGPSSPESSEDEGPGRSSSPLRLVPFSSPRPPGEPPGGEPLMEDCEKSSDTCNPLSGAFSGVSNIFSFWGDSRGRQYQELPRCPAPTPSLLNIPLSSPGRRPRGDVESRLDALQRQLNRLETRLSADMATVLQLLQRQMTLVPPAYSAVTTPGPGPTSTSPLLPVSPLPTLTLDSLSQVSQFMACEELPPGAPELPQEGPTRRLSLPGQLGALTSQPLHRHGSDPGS

Row | Compound | hERG current change (%, negative = inhibition) at 1uM [%]
1 | CC(C)OP(=O)(OC(C)C)C(Nc1ccccc1)c1ccc2c(c1)OCO2 (stereo not shown) | 6.83
2 | CCOc1cc(C(=S)N2CCOCC2)ccc1OC(=O)c1ccc(C)cc1 | 9.09
3 | Cc1nc(SCc2ccc(Cl)c(Cl)c2)n[nH]1 | 18.1
4 | CCN1CCCC1CN(Cc1cc2ccc(C)cc2[nH]c1=O)C(=S)Nc1ccc(OC)cc1OC (stereo not shown) | -34.7
5 | O=C(CN1C(=O)S/C(=C\c2cccc(Cl)c2)C1=O)NCCCn1ccnc1 | -5.38
6 | CCOC(=O)c1ccc(S(=O)(=O)NCCN(CC)CC)cc1.Cl | 12.7
7 | CC12CCCCC1NS(=O)(=O)OC2 (stereo not shown) | 12
8 | O=C(CSc1cn(CC(=O)N2CCCC2)c2ccccc12)NCC1CCCO1 (stereo not shown) | 7.02
9 | O=C(Nc1ccc(CN2CCCCC2)cc1)c1ccc2c(c1)OCO2 | -15.8
10 | Cc1ccc(OCCCC(=O)N2CCOCC2)c(C)c1 | 11.2
11 | CCOc1ccccc1N1C(=O)CC(=O)NC1=O | 12.9
12 | Cc1sc2nc(C(C)C)nc(SCC(=O)NCc3ccco3)c2c1C | 11.6
13 | C=CCSC1=N/C(=C\c2ccc(C)o2)C(=O)S1 | 7.01
14 | COc1ccc(C(=O)NC(=S)Nc2ccc(N3CCOCC3)c(Cl)c2)cc1[N+](=O)[O-] | 10.6
15 | CCOC(=O)c1c(NC(=S)Nc2ccccc2)sc2c1CCN(CC)C2 | -80.2
16 | Cc1ccccc1Nc1nc(N)nc(CSc2nnc3ccccn23)n1 | -2.15
17 | Cc1nc2ccccn2c1P(=O)(N1CCCCC1)N1CCCCC1 | -1.27
18 | CC(C)(C)OC(=O)N1CCC[C@H]1C(=O)N/N=C/c1ccc2ncccc2c1 | 5.82
19 | Nc1nc(-c2ccccc2)cc(-c2ccccc2)n1 | 15.3
20 | Cc1nc(CS(=O)(=O)c2ccc(Cl)cc2)cc(Sc2ccc(Cl)cc2)n1 | 3.33
21 | Cc1ccc(C(C)C)c(OCC(=O)Nc2ccc(N3CCN(S(C)(=O)=O)CC3)cc2)c1 | -1.99
22 | O=C1c2ccccc2C(=O)N1OCc1c(F)cccc1Cl | 7.8

Row | Compound | hERG current change (%, negative = inhibition) at 1uM [%]
23 | Cc1onc(-c2ccccc2)c1C(=O)NCCc1ccncc1 | 8.66
24 | CCOC(=O)c1ccc2nc(NC(C)=O)sc2c1 | 11.7
25 | CC1(C)CC(=O)C(N=Nc2ccc(Cl)cc2)=C(O)C1 | 13.3
26 | O=C(N1CCc2[nH]c3ccccc3c2C1)C(F)(F)F | 13.1
27 | CC(Cn1cncn1)C(=O)N1CCN(S(=O)(=O)c2ccccc2)CC1 (stereo not shown) | 20.4
28 | CC(=O)Nc1cc(NC(C)=O)cc(C(=O)OCC(=O)Nc2ccc(S(=O)(=O)NC3=NCCCCC3)cc2)c1 | 11.4
29 | C/C(=N/NC(=O)c1cc2ccccc2cc1O)c1ccco1 | 10.1
30 | CCCOP(=O)(c1ccccc1)c1ccccc1 | 10.7
31 | CN1C(=O)N(C)C(=O)C2(Cc3cc(NC(=O)c4ccc(F)cc4)ccc3N3CCCC32)C1=O (stereo not shown) | 4.33
32 | O=C(COc1coc(CN2CCN(c3ccccc3F)CC2)cc1=O)Nc1ccccc1 | 20.4
33 | COc1ccc(CNCc2cn(-c3cccc(F)c3)nc2-c2ccc(C)o2)cc1 | -3.51
34 | CC1/C(=N/O)CC(c2ccccc2)NC1c1ccccc1 (stereo not shown) | 11.7
35 | COC(C/C=C\C(=O)[C@@H](C)OCc1ccccc1)OC | 12
36 | O=C(NCc1cccc(CNC(=O)C(=O)NCc2ccco2)c1)C(=O)NCc1ccco1 | -12.3
37 | COc1ccc(-c2cc(C(F)(F)F)c(C#N)c(SCC(=O)Nc3ccc(C)cc3)n2)cc1 | -3.89
38 | Cc1nc(N2CCN(C)CC2)c2c(C)c(C(=O)Nc3ccc(C)c(F)c3)sc2n1 | 4.92
39 | COCC(=O)N(Cc1cc2ccc(C)cc2[nH]c1=O)c1ccc(C)cc1C | 13.9
40 | COC(=O)c1ccc(CNC(=O)Cn2nnnc2CN(C)C(C)C)cc1 | 12.5
41 | O=C(Cc1ccccc1)N/N=C/c1ccc2c(c1)OCO2 | 7.35
42 | O=C(COc1coc(CN2CCc3ccccc32)cc1=O)N1CCCCC1 | 3.29
43 | CCn1c(=Nc2ccc(N3CCOCC3)cc2)ccc2ccccc21 | -25.2
44 | Fc1ccc(CSc2nnc(Cc3sc(-c4ccccc4)nc3-c3ccccc3)o2)cc1 | 13.9

Row | Compound | hERG current change (%, negative = inhibition) at 1uM [%]
45 | Cn1cc(CCC(=O)NCc2ccc(Cl)cc2)c2ccccc21 | 14.1
46 | Cc1ccc(-n2ncc(C(=O)NC3CC3)c2C2CCN(C(=O)OC(C)(C)C)CC2)c(C)c1 | 7.78
47 | Cc1nc2ccccc2nc1OCc1ccccc1 | 7.25
48 | CNC(=O)Nc1cccc(C(F)(F)F)c1 | 8.08
49 | CCN(CC)C(=O)c1c(NC(=O)c2ccccc2)sc(C)c1C | -5.68
50 | Cc1nc(SCC(=O)N2CCN(C(=O)c3ccco3)CC2)c2c(C)c(C)sc2n1 | -43.9
51 | S=c1[nH]nc(COc2ccccc2)n1/N=C/c1ccccc1Cl | 10.4
52 | CC(=O)c1ccc(OC(=O)N(C)c2ccccc2)cc1 | 10
53 | O=C(CSc1nnc(Cc2cc(=O)[nH]c(=O)[nH]2)n1-c1ccc(F)cc1)NC1CCCC1 | 7.42
54 | CCOC(=O)N1CCN(CC(O)COc2ccc3c(c2)CCC3)CC1.Cl (stereo not shown) | 11.5
55 | COc1cccc(CN2CCN(C(=S)NCc3ccc(Cl)cc3)CC2)c1 | 9.94
56 | O=C(COC(=O)Cn1cnc2ccccc2c1=O)Nc1ccc(Cl)cc1 | -5.11
57 | COCCNc1nc(SCC(=O)N2CCN(c3ccccc3)CC2)nc2ccccc12 | -94.4
58 | Cc1c(C(=O)N(Cc2ccc(N(C)C)cc2)CC2CCCO2)oc2ccccc12 (stereo not shown) | -1.65
59 | COc1ccc(-c2nnc(SCC(=O)N3CCN(c4ccccc4)CC3)o2)cc1OC | 9.13
60 | COc1ccc(NC(=S)NCc2ccc(F)cc2)c(OC)c1 | 13.5
61 | Cc1ccc(CN2CC(C(=O)Nc3ccc(S(=O)(=O)Nc4cc(C)nc(C)n4)cc3)CC2=O)cc1 (stereo not shown) | 18.2
62 | O=C(O)c1cccc(N2C(=O)c3cccc4c(Cl)ccc(c34)C2=O)c1 | 11.1
63 | NNC(=O)c1ccc(-c2ccccc2F)cc1 | 14.8
64 | COC1=C(Nc2ccc(O)cc2)C(=O)c2ccccc2C1=O | 2.55
65 | CCCS(=O)(=O)c1nc(C)cc(C)c1S(C)(=O)=O | 15.1
66 | CCn1c(=O)cc(OCC(=O)Nc2ccccc2C#N)c2ccccc21 | 7.97

Row | Compound | hERG current change (%, negative = inhibition) at 1uM [%]
67 | Cc1cc(C)cc(-n2ncc3c2CCCC3NC(=O)C2(C(N)=O)CC2)c1 (stereo not shown) | 15.3
68 | Clc1ccc(-c2c(C3=NCCCN3)nnn2-c2ccc(Cl)cc2)cc1 | -10.2
69 | Nc1nc(NCCO)nc(NC2CCCCC2)c1[N+](=O)[O-] | 13.2
70 | S=C(Nc1ccc(Cl)c(Cl)c1)NC1CCCCC1 | -7.02
71 | CCC(Cc1ccccc1)NS(=O)(=O)c1ccc2c(c1)NC(=O)C(C)S2 (stereo not shown) | 18.1
72 | CNC(=S)N(Cc1ccc(OC)cc1)C1CC(=O)N(c2ccc(Cl)cc2)C1=O (stereo not shown) | -1.59
73 | O=[N+]([O-])c1ccc(Cl)c2c1C1C=CCC1C(c1ccccn1)N2 (stereo not shown) | 15.1
74 | Cc1nc(C(=O)O)cc2c1[nH]c1ccccc12 | 2.19
75 | Br.C/C(=N\NC1=N[C@H]2CS(=O)(=O)C[C@H]2S1)c1ccccc1 | 11.4
76 | COC(=O)c1ccc(N/C(C)=C/C(=O)c2ccc(C)o2)cc1 | 7.96
77 | COc1ccc(C(C(=O)NC2CCCC2)N(CC2CCCO2)C(=O)Cn2nnc(-c3ccc(C)o3)n2)cc1 (stereo not shown) | 2.52
78 | O=C(c1ccc2c(=O)n(Cc3ccco3)c(=S)[nH]c2c1)N1CCN(Cc2ccccc2)CC1 | 13.1
79 | Cc1cc(N2C(=O)C(O)=C(C(=O)c3ccc(C)o3)C2c2cccc(Oc3ccccc3)c2)no1 (stereo not shown) | 17.4
80 | CCCCCCNC(=O)CCNC(=O)c1cc(OC)c(OC)c(OC)c1 | 4.93
81 | CC1CCN(Cc2c(C(=O)N/N=C/c3cccc(C(F)(F)F)c3)nnn2-c2nonc2N)CC1 | 13.9
82 | CSc1ccccc1NC(=O)CN(C)CC(=O)Nc1ccc(Cl)cc1F | 0.288
83 | C#Cc1cccc(NC(=O)C2CCN(C(C)=O)CC2)c1 | 9.75
84 | Cc1cc(S(=O)(=O)N2CCOCC2)ccc1OCC(=O)NCCCn1ccnc1 | 16.1
85 | CC[C@@H]1CC=C[C@H]2[C@H]1C(=O)N(Cc1ccccc1)[C@H]2c1ccc(C(F)(F)F)cc1 | 6.67
86 | NC(=O)Nn1c(CCC(=O)O)ccc1-c1ccc(Cl)cc1 | 5.06
87 | Cc1cc(C)cc(NC(=O)CN(C)S(=O)(=O)c2cccc3nsnc23)c1 | 8.35
88 | COc1ccc(-c2nn(CCC#N)cc2/C=N/O)cc1OC | 6.57
